According to the supplement of paper PMC12217912:
The other results are listed elsewhere or left out. Sequences were assembled here from the parent chain. Values near 0.05 are background.

B1: TEV protease; numbered along this chain (parent)
chain: MGESLFKGPRDYNPISSSICHLTNESDGHTTSLYGIGFGPFIITNKHLFRRNNGTLVVQSLHGVFKVKDTTTLQQHLVDGRDMIIIRMPKDFPPFPQKLKFREPQREERICLVTTNFQTKSMSSMVSDTSCTFPSGDGIFWKHWIQTKDGQCGSPLVSTRDGFIVGIHSASNFTNTNNYFTSVPKNFMELLTNQEAQQWVSGWRLNADSVLWGGHKVFMVKPEEPFQPVKEATQL

Variants of: B1
Assay: raw area under fraction-flipped curve 0-4 h after induction (AUC4h, not background-subtracted), DNA-recorder readout of cleavage of the substrate (dimensionless); higher = more cleavage of the substrate by the protease variant
Conditions: temperature: 34 °C; time window: 0-4 h after rhamnose induction
Protocol: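 In vivo DNA recorder in E. coli TOP10(DE3) ΔrhaA at 34 °C. Each TEVp single-site mutant (parent TEVp 0) is paired with a single-site variant of the 7-mer TEVs (canonical ENLYFQ|S). The substrate sits between flexible linkers in a Bxb1-sfGFP-TEVs-SsrA fusion, so cleavage stabilises Bxb1 and speeds flipping of a recombination array, read by NGS. The value is the raw area under the fraction-flipped curve over 0-4 h after rhamnose induction (AUC4h), with ≥20 reads per time point. It is not background-subtracted; inactive controls average about 0.047.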
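Further: Bxb1 expression induced with 0.2% (w/v) L-rhamnose at OD600 near 0.5, cultures sampled hourly, flipped fraction per protease–substrate barcode pair counted by paired-end Illumina sequencing.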

Row | Variant | area with substrate ENLYAQS | area with substrate ENLYEQS | area with substrate ENLYGQS | area with substrate ENLYHQS | area with substrate ENLYIQS | area with substrate ENLYKQS | area with substrate ENLYLQS | area with substrate ENLYMQS | area with substrate ENLYNQS | area with substrate ENLYQQS | area with substrate ENLYRQS | area with substrate ENLYSQS | area with substrate ENLYVQS | area with substrate ENLYWQS | area with substrate ENLYYQS | area with substrate ENLYCQS | area with substrate ENLYDQS | area with substrate ENLYPQS | area with substrate ENLYTQS
1 | G39F | 0.0418 | 0.0438 | 0.0476 | 0.0471 | 0.0432 | 0.0476 | 0.0413 | 0.0077 | 0.0455 | 0.0515 | 0.0442 | 0.0436 | 0.0638 | 0.0446 | 0.0224 |  |  |  | 
2 | I42V | 0.0647 |  | 0.0703 | 0.0752 |  | 0.0449 |  | 0.0688 | 0.0712 |  | 0.0575 | 0.0576 | 0.107 | 0.0914 |  | 0.0876 | 0.0536 | 0.0677 | 0.0762
3 | F187Y | 0.0475 | 0.0662 |  | 0.0618 |  | 0.0539 |  |  | 0.059 | 0.113 | 0.0576 | 0.0587 | 0.0772 |  |  | 0.0617 | 0.0637 | 0.0617 | 0.0814
4 | Y12M | 0.0716 | 0.0661 | 0.0668 | 0.0703 | 0.128 | 0.0587 | 0.0761 | 0.0796 | 0.0685 | 0.0658 | 0.0649 | 0.0818 | 0.121 | 0.0937 | 0.0646 |  | 0.072 | 0.0803 | 0.0777
5 | Y12N | 0.0815 | 0.0688 | 0.0586 | 0.0571 | 0.16 | 0.09 |  | 0.0956 | 0.0668 | 0.065 | 0.002 | 0.0646 |  | 0.111 | 0.0358 |  |  | 0.07 | 
6 | K100G | 0.0708 | 0.0702 | 0.0783 |  |  | 0.0661 | 0.0822 | 0.0768 | 0.0666 | 0.0496 | 0.0662 |  | 0.112 | 0.0834 |  | 0.1 | 0.0371 | 0.0813 | 
7 | H76D | 0.0594 |  | 0.0357 | 0.0611 | 0.074 | 0.0648 |  | 0.0631 | 0.0631 |  |  |  | 0.0557 | 0.0591 |  |  | 0.0666 |  | 0.0271
8 | V210N | 0.0749 | 0.0527 | 0.0564 | 0.0619 |  | 0.0166 |  | 0.0655 | 0.0654 | 0.0617 | 0.0586 |  |  | 0.0505 | 0.0723 |  |  |  | 0.0666
9 | P9C | 0.101 | 0.11 | 0.0691 |  |  | 0.0485 |  |  | 0.0625 | 0.075 | 0.0558 |  | 0.048 |  | 0.0668 |  | 0.0708 | 0.059 | 
10 | Q59G | 0.0404 | 0.0718 | 0.0711 | 0.066 | 0.13 | 0.054 |  | 0.0756 | 0.0666 | 0.0602 | 0.0513 | 0.0549 | 0.118 |  |  |  | 0.05 | 0.0694 | 
11 | I164Q | 0.0375 | 0.05 | 0.0536 | 0.0571 | 0.0403 | 0.0348 | 0.0471 | 0.0486 |  | 0.0638 |  | 0.0533 | 0.0433 | 0.0501 | 0.0472 |  | 0.0535 | 0.0517 | 
12 | H143G | 0.0701 | 0.0718 | 0.0623 | 0.0465 | 0.0824 | 0.0588 | 0.0699 |  |  |  |  | 0.0567 | 0.111 | 0.0801 | 0.0585 |  | 0.0575 | 0.077 | 0.062
13 | F226E | 0.0487 | 0.0924 | 0.0691 | 0.0713 |  | 0.108 |  |  | 0.069 |  | 0.0545 | 0.0589 | 0.097 | 0.064 | 0.0638 | 0.109 | 0.0765 | 0.0739 | 
14 | G54C | 0.0703 | 0.0698 | 0.0529 | 0.0684 | 0.0772 | 0.042 | 0.0714 | 0.066 | 0.0613 | 0.0452 | 0.049 | 0.0562 | 0.0753 | 0.0618 | 0.0657 | 0.078 | 0.0669 | 0.0727 | 0.0612
15 | G54M | 0.0642 | 0.0542 | 0.0537 | 0.0561 |  | 0.0545 | 0.0641 |  | 0.0496 | 0.0623 | 0.0602 | 0.0618 | 0.0745 |  |  |  | 0.0547 | 0.0559 | 
16 | S135N | 0.0282 | 0.0558 | 0.0563 | 0.0613 | 0.0686 |  |  |  | 0.0542 | 0.0665 | 0.0524 | 0.069 | 0.0922 | 0.058 |  | 0.0803 | 0.057 | 0.0624 | 
17 | E223N | 0.0512 | 0.0708 | 0.0581 |  | 0.131 | 0.0527 |  | 0.0834 | 0.0644 | 0.0634 |  | 0.0714 | 0.0731 | 0.0757 |  |  | 0.0606 | 0.0556 | 
18 | Q75E | 0.0417 |  | 0.0626 | 0.0498 | 0.0936 |  |  | 0.0648 |  |  | 0.0548 | 0.0654 | 0.0742 | 0.0618 | 0.0643 |  | 0.0578 | 0.0575 | 
19 | K90G | 0.0747 |  | 0.0569 |  | 0.112 | 0.0674 |  |  | 0.041 | 0.0667 |  |  |  | 0.0942 |  |  | 0.0596 | 0.0651 | 0.0806
20 | S201G | 0.0604 | 0.0639 | 0.0598 | 0.0613 | 0.091 | 0.0916 |  | 0.0622 | 0.0569 | 0.0613 | 0.0534 |  | 0.0632 | 0.0629 | 0.0656 |  | 0.068 | 0.0545 | 0.0752
21 | F41P | 0.0607 | 0.0478 | 0.0517 | 0.0543 | 0.0492 | 0.0409 | 0.0472 | 0.0557 | 0.0484 |  | 0.0338 | 0.0485 | 0.0551 | 0.0455 | 0.0489 | 0.0357 | 0.0546 | 0.0431 | 
22 | T23K | 0.0855 | 0.0624 | 0.0611 | 0.0647 | 0.0977 | 0.0706 | 0.0723 | 0.0858 | 0.0765 | 0.0677 | 0.06 |  | 0.0949 | 0.0549 |  |  | 0.0609 | 0.0606 | 
23 | R102M | 0.0733 | 0.0614 | 0.0278 | 0.0465 |  | 0.0488 |  | 0.0565 | 0.0541 | 0.0671 | 0.0526 |  | 0.0605 | 0.0499 | 0.0369 |  | 0.0417 | 0.042 | 0.0635
24 | F173H | 0.0725 | 0.0575 | 0.0719 | 0.0645 | 0.101 | 0.0645 | 0.0582 | 0.0714 | 0.0625 | 0.0731 | 0.0635 | 0.078 | 0.088 | 0.0613 | 0.0727 | 0.0766 | 0.0497 | 0.0699 | 0.0597
